The values that follow come from PubChem BioAssay AID485344 (National Center for Advancing Translational Sciences (NCATS), 2010).

About 6,900 (2%) of roughly 340,000 compounds were called active. Cut-off read from the data, not from the text of the source: active = inhibition above about 30%; inactive = below that, where a call was filed. The list shows a part of the results, in another mix than the full data. The source gives no active or inactive call for entries shown without one.

For orientation: inhibition means the relative decrease from the control value, in per cent.

For this experiment, the target named is D(2) dopamine receptor (Homo sapiens) (UniProt P14416). In words: HTS Assay for Allosteric Antagonists of the Human D2 Dopamine Receptor: Primary Screen for Antagonists. Note: 0% is about no effect. As to conditions: HEK293 TREx D2 cells, calcium flux, dopamine EC80; at 10 µM; stronger effect = higher value. The method, boiled down: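 Dopamine at EC80 is the agonist stimulus; test compounds precede it by 180 s. Calcium flux read kinetically in a force-coupled, inducible HEK293 T-REx D2 cell line.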
Sequence of UniProt P14416 (P14416 whole entry, looked up): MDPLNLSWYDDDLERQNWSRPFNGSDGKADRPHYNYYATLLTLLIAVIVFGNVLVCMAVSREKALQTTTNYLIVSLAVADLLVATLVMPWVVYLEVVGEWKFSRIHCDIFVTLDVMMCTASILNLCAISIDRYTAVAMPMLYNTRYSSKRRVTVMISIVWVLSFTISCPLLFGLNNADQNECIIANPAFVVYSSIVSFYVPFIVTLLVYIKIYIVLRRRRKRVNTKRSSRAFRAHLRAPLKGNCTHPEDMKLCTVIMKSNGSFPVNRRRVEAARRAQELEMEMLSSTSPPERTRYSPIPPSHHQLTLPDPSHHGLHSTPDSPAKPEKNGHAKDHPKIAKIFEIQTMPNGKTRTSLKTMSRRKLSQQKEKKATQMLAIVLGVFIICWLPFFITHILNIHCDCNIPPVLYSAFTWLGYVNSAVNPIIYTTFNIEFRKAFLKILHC
For orientation: Calcium flux is commonly read through the fluorescence of an indicator in the cells.
With `Cc1ccc2c(=O)cc(C(=O)Nc3ccc(S(=O)(=O)Nc4ncccn4)cc3)oc2c1C`, the inhibition was -10%.

As to `O=C(CSc1nc2c([nH]c3ccccc32)c(=O)n1-c1ccc(Cl)cc1)c1ccccc1`, the inhibition was -11.6%.

For `Cc1cc(C)cc(NC(=O)Cn2cc(C(=O)C3CCCCC3)c3ccccc32)c1`, the inhibition is 11.6%.

Take `Cc1ccc2nc(COc3ccccc3NC(=O)c3ccc(F)cc3)cc(=O)n2c1`: the inhibition is 2.01%.

`COc1ccc(NCc2cccn2-c2nnc(N3CCCCC3)s2)cc1OC`: the inhibition stood at 3.56%.

As to `Cc1cc(C)c(NC(=O)C2CCN(c3nn4c(=O)cc(C)nc4s3)CC2)c(C)c1`, the inhibition is 13.7%.

As for `O=C(c1ccco1)N1CCN(C(=O)C2CCN(S(=O)(=O)c3cnc[nH]3)CC2)CC1`, the inhibition was active: 51.6%.

With `CCOc1ccc(NC(=O)c2c(NC(=O)Cc3ccccc3)sc3c2CCCCC3)cc1`, the inhibition was 1.1%.

In the case of `COc1ccccc1CNC(=O)c1cn(C)c2ccc(S(=O)(=O)N(C)C3CCCCC3)cc2c1=O`, the inhibition amounted to 1.62%.

Consider `CCOc1ccc(NS(=O)(=O)c2ccc3c(c2)CCCN3C(=O)C2CCC2)cc1`, for which the inhibition turned out to be 17%.

Regarding `Cc1ccc(NC(=O)CSc2cn(CC(=O)N3CCCC3)c3ccccc23)cc1Cl`, the inhibition was -7.96%.

On to `CCOC(=O)CSc1nc2c(sc3ccccc32)c(=O)n1CCO`, for which the inhibition was determined as 5.84%.

`Cc1cc(C)n(-c2ccc([N+](=O)[O-])cc2)n1`: the inhibition is active: 34.2%.

Regarding `Cc1csc2nc(COc3cccc(NC(=O)c4ccccc4F)c3)cc(=O)n12`, the inhibition was determined as 10.8%.

Consider `Cc1nn(CC(=O)N2CCN(c3ccc(Cl)cc3)CC2)c(=O)c2cccn12`, for which the inhibition came out at 20.3%.

On to `COc1ccc(OCC(O)Cn2c(NCCO)nc3c2c(=O)n(C)c(=O)n3C)cc1` (centres undefined), for which the inhibition was -12.3%.

In the case of `COc1ccc(NC(=O)CSc2nc3c(oc4ccccc43)c(=O)n2Cc2ccco2)cc1Cl`, the inhibition stood at 6.26%.

In the case of `COc1ccc(/C=C/C(=O)Nc2nc(-c3cccs3)ns2)cc1`, the inhibition was -5.67%.

On to `CC1CCN(S(=O)(=O)c2nnc(NC(=O)c3cccc(Cl)c3)s2)CC1`, for which the inhibition is 13.8%.

As for `Cc1ccc(CCNc2ncnc3onc(-c4ccc(Cl)cc4)c23)cc1`, the inhibition was 4.12%.

In the case of `COc1ccc(-c2nc(S(=O)(=O)c3ccc(Cl)cc3)c(NCc3ccccc3)o2)cc1`, the inhibition was found to be 20%.

Regarding `COc1cc(-c2nc(Cn3nnc(C(=O)Nc4cccc(Cl)c4)c3C)c(C)o2)cc(OC)c1OC`, the inhibition is 0.477%.

In the case of `Cc1ccc(-c2cn3c(n2)sc2cc(C(=O)NCCC4=CCCCC4)ccc23)cc1`, the inhibition was -26.4%.

On to `COc1ccc(CNC(=O)C2CCC(CNS(=O)(=O)c3ccc4c(c3)CCCC(=O)N4)CC2)cc1` (centres undefined), for which the inhibition is -0.953%.

For the molecule `Cc1noc(C)c1S(=O)(=O)N(CC(=O)NCCc1ccccc1)c1ccc(C(C)C)cc1`, the inhibition is -7.24%.

On to `CCOC(=O)c1c(NC(=O)c2ccc(S(=O)(=O)N(C)C3CCCCC3)cc2)sc2c1CCN(C(C)C)C2`, for which the inhibition came out at 3.41%.

For the molecule `CCOCCCN1C(=O)c2ccccc2CC1(C)C(=O)NC1CCCCC1` (centres undefined), the inhibition amounted to 5.17%.

Consider `COC(=O)c1ccccc1NC(=O)c1sc2nc(C)cc(C)c2c1NC(=O)c1ccccc1OC`, for which the inhibition was -12.8%.

With `COc1ccc(NC(=O)C2=C(C)Nc3ncnn3C2c2cccn2C)cc1` (centres undefined), the inhibition worked out at 0.214%.

On to `CC(=O)Nc1ccc(S(=O)(=O)NC2=NCN(CCO)CN2)cc1`, for which the inhibition stood at 2.92%.

For `O=C(C1CCN(S(=O)(=O)Cc2ccccc2)CC1)N1CCN(c2cccc(C(F)(F)F)c2)CC1`, the inhibition was 2.34%.

As for `COc1ccccc1CNC(=O)CN1C(=O)COc2ccc(S(=O)(=O)NC3CCCC3)cc21`, the inhibition amounted to 5.12%.

In the case of `Cc1cccc(-n2c(CNC(=O)c3cccc(F)c3)nnc2SCC(=O)Nc2ccccc2F)c1`, the inhibition came out at 25%.

`CC1CCN(CC2CCN(C(=O)Nc3ccc(Br)cc3F)CC2)CC1`: the inhibition is -3.53%.

Take `CC(=O)Nc1ccc(C(=O)COC(=O)c2cccs2)c(F)c1`: the inhibition is active: 34.7%.

`CCc1cccc(-n2c(=O)c3cccnc3n2CC(=O)Nc2c(C)cc(C)cc2C)c1`: the inhibition was -6.39%.

`COc1cc(S(=O)(=O)NCCc2c(C)[nH]c3ccccc23)c(C)cc1C`: the inhibition came out at 15%.

For `O=C(N/N=C/c1cccc([N+](=O)[O-])c1)c1cc2ccccc2o1`, the inhibition was active: 32.9%.

For `COc1ccc(N(Cc2cc3cccc(C)c3[nH]c2=O)C(=O)c2cccc(Cl)c2)cc1`, the inhibition was -2.07%.

Take `CC(=O)N1CCc2cc(S(=O)(=O)C(C)CC(=O)Nc3ccc(Br)c(C)c3)ccc21` (centres undefined): the inhibition was -6.15%.

In the case of `CN(C)S(=O)(=O)c1ccc(C(=O)NCCSc2c(-c3ccccc3)[nH]c3ccccc23)cc1`, the inhibition was 6.55%.

As for `COc1ccc2nc(N(Cc3cccnc3)C(=O)Cc3ccccc3)sc2c1`, the inhibition was 24.1%.

Consider `CCCn1c(=O)n(-c2ccccc2Cl)c(=O)c2sc3ccccc3c21`, for which the inhibition was 7.93%.

In the case of `Cc1cc(C)c(NC(=O)Cn2nc(-c3ccncc3)ccc2=O)c(C)c1`, the inhibition worked out at 4.93%.

For the molecule `O=C(CN1C(=O)C(c2ccc(F)cc2)=NC12CCCCCC2)Nc1ccccc1Cl`, the inhibition was determined as 0.187%.

For the molecule `CC1=Nc2cc(C(=O)NCc3ccccc3Cl)ccc2Sc2c(C)ccc(C)c21`, the inhibition came out at 6.27%.

On to `COc1ccc(-c2ccc3c(N)c(C(=O)Nc4ccc(C(F)(F)F)cc4)sc3n2)cc1OC`, for which the inhibition was -10.8%.

Take `Cc1ccc(C)c(N2CCN(S(=O)(=O)c3cc(-c4cc(C)no4)ccc3C)CC2)c1`: the inhibition was 5.82%.

As to `Cc1nc2cccnc2n1-c1cccc(C(=O)N2CCN(c3cccc(Cl)c3)CC2)c1`, the inhibition is 27.7%.

Consider `COc1ccc(-c2nnc(SCC(=O)NCCc3ccc(OC)c(OC)c3)nc2-c2ccc(OC)cc2)cc1`, for which the inhibition is -14.4%.

Consider `Cc1ccc(-n2nc(CO)c(C(=O)NCCCCc3ccccc3)n2)cc1C`, for which the inhibition was -12.8%.

In the case of `Cc1ccc(-c2nnc(Nc3cccc(Cl)c3)c3ccccc23)cc1S(=O)(=O)N1CCCCC1`, the inhibition amounted to 9.76%.

On to `COc1ccc(NS(=O)(=O)c2cccc(C(=O)NCC(c3ccco3)N(C)C)c2)cc1` (centres undefined), for which the inhibition is active: 36.5%.

As for `CC(=O)c1ccc(N2CCN(C(=O)C3CCCN(S(=O)(=O)c4ccc(Br)s4)C3)CC2)cc1` (centres undefined), the inhibition is -8.79%.

`CN(C)C(=O)/C(=C\c1ccncc1)NC(=O)c1ccccc1`: the inhibition is active: 39.2%.

As to `Cc1ccc(-n2nc3ccc(NC(=O)COc4ccccc4C)cc3n2)cc1`, the inhibition was -1.82%.

Regarding `CCC1CN(S(=O)(=O)c2cc(-c3cc(C)no3)ccc2C)c2cc(C)ccc2O1` (centres undefined), the inhibition is 2.3%.

For the molecule `O=C(COC(=O)c1cc[n+]([O-])cc1)Nc1ccc(SC(F)F)cc1`, the inhibition is active: 30.6%.

On to `Cc1nc2c(-c3ccc(F)cc3)c(C)nn2c(C)c1CCC(=O)N1CCN(c2ccccc2)CC1`, for which the inhibition amounted to 23.4%.

For the molecule `O=C(Nc1cc(C(F)(F)F)ccc1-n1cncn1)c1ccc(F)cc1Cl`, the inhibition is active: 34.8%.

As for `Cc1cccc2c3c([nH]c12)CCN(C)C3`, the inhibition was active: 66.1%.

As for `CCCCn1c(SCC(=O)c2ccccc2)nc2c(sc3ccccc32)c1=O`, the inhibition turned out to be 13.5%.

Turning to `O=C(NCc1ccccc1)C(=O)Nc1nc(C23CC4CC(CC(C4)C2)C3)cs1`, the inhibition is active: 32.2%.

With `CCN(C(=O)Cn1nnc2sc3c(c2c1=O)CCC(C(C)(C)C)C3)c1cccc(C)c1` (centres undefined), the inhibition was -11.8%.

For `COC(=O)c1cc2oc3ccccc3c2n1Cc1nc(-c2ccc(Cl)cc2)oc1C`, the inhibition is -6.6%.

As to `CCc1ccc(CNC(=O)c2nn(-c3ccc(C)cc3)c(=O)c3c2c2ccccc2n3C)cc1`, the inhibition is -4.79%.

For the molecule `COc1ccc(CNc2nc(NCc3ccc(OC)cc3)c3[nH]cnc3n2)cc1`, the inhibition was active: 41.6%.

For the molecule `Cc1ccc(OCCCCN2CCC(C)CC2)cc1`, the inhibition was active: 48.9%.

On to `O=C(Nc1ccc(S(=O)(=O)N2CCCC2)cc1)c1ccc(CN2CCc3ccccc3C2)cc1`, for which the inhibition is active: 64%.

With `Cc1ccc(S(=O)(=O)N(CC(=O)Nc2ccc3c(c2)OCO3)c2cc(Cl)cc(Cl)c2)cc1`, the inhibition is -12.7%.

Consider `Cc1cc(OCC(=O)Nc2ncn[nH]2)ccc1Cl`, for which the inhibition was 16.4%.

Turning to `CCN(CC)S(=O)(=O)c1ccc(OC)c(-n2cnnn2)c1`, the inhibition was -9.96%.

Turning to `CCCCC(=O)NC1CC(=O)N(c2ccc3c(c2)OCCO3)C1` (centres undefined), the inhibition was 2.96%.

For `COc1cccc(-n2c(=O)c3sc4ccccc4c3n(CC(=O)NC3CCCCC3)c2=O)c1`, the inhibition was -9.12%.

`Cc1c(NC(=O)c2ccc(-c3cccc([N+](=O)[O-])c3)o2)cccc1-c1nc2cc(Cl)ccc2o1`: the inhibition is -4.13%.

With `Cn1c(=O)oc2cc(S(=O)(=O)NCCC(=O)Nc3ccc(F)cc3F)ccc21`, the inhibition amounted to 13.5%.

`CCOC(=O)c1cc2c(=O)n3ccccc3nc2n(CCOC)c1=NC(=O)c1c(-c2ccccc2Cl)noc1C`: the inhibition was -15.6%.

On to `O=C(CNC(=O)c1ccc(F)cc1)OCc1cc(=O)n2nc(C3CC3)sc2n1`, for which the inhibition is -2.25%.

For `CCc1nc2nc(C)c(NS(=O)(=O)c3ccc(C(C)(C)C)cc3)c(=O)n2[nH]1`, the inhibition was 0.405%.

Take `O=C(CCn1cnc2ccccc2c1=O)NCc1ccccc1Cl`: the inhibition was -20.7%.

For `CCc1ccc(S(=O)(=O)Nc2cc3c(C(=O)OCc4ccccc4)c(C)oc3c3ccccc23)cc1`, the inhibition is -5.99%.

With `COc1ccc(-c2nc(C)c(CCNS(=O)(=O)c3cc(Cl)ccc3Cl)s2)cc1`, the inhibition is 2.51%.

In the case of `CCOC(=O)c1sc2ncn(CC(=O)Nc3ccc(OCC)cc3)c(=O)c2c1C`, the inhibition was -0.934%.

As for `CCC(=O)N1c2ccccc2CC1C(=O)NCCc1ccc(OC)c(OC)c1` (centres undefined), the inhibition was 5.88%.

As to `COC(=O)CN1C(=O)CSc2ccc(S(=O)(=O)Nc3cc(C)ccc3C)cc21`, the inhibition was -8.54%.

As to `CCc1nn2c(=O)cc(COC(=O)COc3ccc(OC)cc3)nc2s1`, the inhibition turned out to be 16.1%.

`CCC(=O)Nc1cccc(NC(=O)c2ccc(C)cc2Cl)c1`: the inhibition was active: 34.6%.

`Cc1c(C(=O)Nc2cccc(C(F)(F)F)c2)oc2ccc3c(c12)C(=O)CC(C)(C)O3`: the inhibition was determined as 2.81%.

As to `CC1=C(c2ccc(C)c(C)c2)S(=O)(=O)NC1=NCc1ccccc1Cl`, the inhibition was 7.61%.

`CCOC(=O)c1c(C)[nH]c(C)c1S(=O)(=O)N1CCC(C(=O)Nc2cc(Cl)ccc2OC)CC1`: the inhibition is 1.4%.

For the molecule `Cc1cc(C)c(NC(=O)c2sc3nc(C)cc(C)c3c2NC(=O)c2ccccc2)c(C)c1`, the inhibition was -6.98%.

On to `CCOc1ccc(CCNC(=O)c2cn(C)c3ccc(S(=O)(=O)N4CCCCC4)cc3c2=O)cc1OCC`, for which the inhibition came out at 7.33%.

Turning to `COc1ccccc1C(=O)Nc1cccc(C(=O)OCc2cc(=O)n3cc(C)sc3n2)c1`, the inhibition was found to be 0.894%.

Regarding `Clc1cccc(-c2ccc(CNCCSc3nnnn3-c3ccccc3)o2)c1`, the inhibition was -24.6%.
